Results from PubChem BioAssay AID1240 (Sanford-Burnham Center for Chemical Genomics, 2008).
Out of some 50,000 compounds screened, about 800 (1.6%) showed an effect of 50% or more. This is one part of the list.

The compounds below were run against Bcl-2-like protein 10 (Homo sapiens) (UniProt Q9HD36) (assay: Phenotype converters, Bcl-B/TR3 peptide binding displacement, primary biochemical FP (AID 1240;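 also: 0% = Bcl-B with tracer peptide and DMSO and 100% = tracer peptide lacking Bcl-B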)). Conditions: GST-Bcl-B / FITC-TR3 peptide fluorescence polarization; stronger effect = higher value; compound at 3.75 mg/L.
UniProt Q9HD36, sequence (Q9HD36 whole entry, looked up): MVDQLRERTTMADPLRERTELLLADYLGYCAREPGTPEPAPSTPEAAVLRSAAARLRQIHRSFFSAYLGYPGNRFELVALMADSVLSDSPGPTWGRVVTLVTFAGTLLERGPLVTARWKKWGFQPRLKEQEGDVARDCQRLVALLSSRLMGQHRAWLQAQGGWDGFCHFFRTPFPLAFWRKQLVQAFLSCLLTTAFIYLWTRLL

Compound | displacement [%]
CC(C)c1ccc(OCC(=O)Nc2ncc(S(=O)(=O)c3ccc([N+](=O)[O-])cc3)s2)cc1 | 4.6
O=C1NC(=S)S/C1=C\c1ccc(N2CCCCC2)c([N+](=O)[O-])c1 | 34.6
Cc1ccc2nsnc2c1NC(=O)COc1ccccc1[N+](=O)[O-] | -0.3
CCOc1ccccc1NC(=O)C(=O)NCCC1=CCCCC1 | -10.3
CC(=O)c1cccc(NC(=S)Nc2ccccc2)c1 | -10.1
Cc1ccc(N2C(=O)CC(Sc3ccccc3C(=O)O)C2=O)c([N+](=O)[O-])c1 (stereo not given) | -15
CCOc1ccccc1OCCN1CCOCC1 | -4.9
COc1ccc(C(=O)Nc2ccc(NC(=O)c3ccco3)c(OC)c2)cc1Cl | 20.4
CC1=C(C(=O)OCCOc2ccccc2)C(c2ccccc2[N+](=O)[O-])C2=C(CCCC2=O)N1 (stereo not given) | -3.8
Cc1ccc(N(CC(=O)NCc2ccncc2)S(=O)(=O)c2ccc(F)cc2)cc1 | 0.9
Cc1onc(-c2ccccc2)c1C(=O)N1CCN(c2ccc(Cl)cc2)CC1 | -5.1
O=C(CSc1ncc(-c2ccccc2)[nH]1)NCCOc1ccccc1 | 29.8
COC(=O)c1cc(NC(=O)c2cccc(Cl)c2Cl)cc(C(=O)OC)c1 | 12.6
O=C(COc1cccc(Cl)c1)N/N=C\c1cccnc1 | 6.5
O=C(NC(=S)Nc1ccc2oc(-c3ccccc3)nc2c1)c1ccccc1 | -10.6
O=C1c2cccc3cccc(c23)C(=O)N1c1ccc2c(c1)OCO2 | 0.6
C/C(=N/n1cnnc1)c1ccc(NS(=O)(=O)c2ccc(Br)cc2)cc1 | 1.6
COc1ccc(-c2cc(C(=O)NCc3ccco3)c3ccccc3n2)cc1 | -0.3
O=C(N/N=C/c1ccc[nH]1)c1cccc(Cl)c1 | -6.5
CCOc1ccccc1N1CCN(C(=O)COc2ccc(Cl)cc2C)CC1 | -8.1
COC1=C(C(C)(C)C)C(=O)C(=O)C(C(C)(C)C)=C1OC | 1
CCOc1cc(/C=C2\C(=O)NC(C)=C2C(=O)OC)ccc1O | 13.6
COc1ccccc1/C=C1\C=C(c2ccc(Cl)cc2)OC1=O | 9.6
CCOC(=O)C1=C(C)N=c2s/c(=C\c3ccc(Br)o3)c(=O)n2C1c1cccc(OC)c1 (stereo not given) | 10.7
CC(C)(C)c1nnc(NC(=S)Nc2ccccc2)s1 | -7.2
CCCOC(=O)c1ccc(NC(=O)c2cccc(OCc3ccccc3)c2)cc1 | -3.3
CCOC(=O)c1c(CC(C)C)csc1NC(=O)c1ccccc1Cl | -2.4
COc1ccc(-c2nc(-c3ccc(OC)c(OC)c3)no2)cc1 | 29.1
O=S(=O)(CCc1nc2ccccc2s1)c1ccc(Cl)cc1 | 0.3
CCOC(=O)C(=CNc1ccc2c(c1)OCO2)C(=O)OCC | 1.4
